# Source: PMC11995724, “Antibiotic target discovery by integrated phenotypic and activity-based profiling of electrophilic fragments” (Cell chemical biology, 2025)
# Out of some 3,200 compounds screened, about 75 (2%) showed an effect of 50% or more. Some of the results follow.
# Tested on: T1, S. aureus MSSA476
# T1 construct: MSSA476
# Set-up: species or system S. aureus MSSA476 (TSB) or V. cholerae SAD30 (LB); 384-well bacterial growth screen at 25 uM, OD600 relative to DMSO control
# Conditions: relative growth, OD600, TSB; 25 µM; inhibitor
row,SMILES,% of control remaining [%]
1,"Cc1ccc(C=C(C#N)C(=O)Nc2nccs2)s1 [8-P13, 2-cyano-3-(5-methylthiophen-2-yl)-N-(1,3-thiazol-2-yl)prop-2-enamide]",93.61
2,"O=C(CCl)NCCc1cccc2c1Oc1ccccc1O2 [7-J18, 2-chloro-N-[2-(oxanthren-1-yl)ethyl]acetamide]",110.518
3,"C=CC(=O)N1CCC(C(=O)Nc2ccc(N(C)C(C)=O)cc2)CC1 [2-D08, N-[4-(N-methylacetamido)phenyl]-1-(prop-2-enoyl)piperidine-4-carboxamide]",100.957
4,"CCC(=O)N1CCc2cc(C(=O)CCl)ccc21 [10-C22, 1-[5-(2-chloroacetyl)-2,3-dihydro-1H-indol-1-yl]propan-1-one]",125.938
5,"CC(=O)Nc1ccc(NC(=O)N2CCSSCC2)cc1 [10-J11, N-(4-acetamidophenyl)-1,2,5-dithiazepane-5-carboxamide]",105.938
6,"N#CC(=Cc1ccc(OC(F)F)c(Cl)c1)C(N)=O [9-L12, 3-[3-chloro-4-(difluoromethoxy)phenyl]-2-cyanoprop-2-enamide]",91.3858
7,"CC(Cl)C(=O)N1CCN(Cc2cc(=O)n3ccsc3n2)CC1 (stereo not drawn) [6-P17, 7-{[4-(2-chloropropanoyl)piperazin-1-yl]methyl}-5H-[1,3]thiazolo[3,2-a]pyrimidin-5-one]",84
8,"Cc1ccc(NC(=O)C(C#N)=Cc2ccc(C(C)(C)C)cc2)cc1C [9-E04, 3-(4-tert-butylphenyl)-2-cyano-N-(3,4-dimethylphenyl)prop-2-enamide]",96.4794
9,"Cc1cc(NC(=O)CCl)c([N+](=O)[O-])cc1C [4-F21, 2-chloro-N-(4,5-dimethyl-2-nitrophenyl)acetamide]",87.2797
10,"Cl.O=C(CCl)NC1CCN(c2ccncc2)CC1 [5-P09, 2-chloro-N-[1-(pyridin-4-yl)piperidin-4-yl]acetamide hydrochloride]",100.182
11,"C=CC(=O)NCc1ccc(C(C)(C)C)[nH]c1=O [3-P08, N-[(6-tert-butyl-2-oxo-1,2-dihydropyridin-3-yl)methyl]prop-2-enamide]",91.2495
12,"CCC(NC(=O)CCl)c1nc(C)n[nH]1 (stereo not drawn) [5-O14, 2-chloro-N-[1-(3-methyl-1H-1,2,4-triazol-5-yl)propyl]acetamide]",76.1384
13,"CC(NC(=O)CCl)c1cc(C(F)(F)F)[nH]n1 (stereo not drawn) [5-P11, 2-chloro-N-{1-[5-(trifluoromethyl)-1H-pyrazol-3-yl]ethyl}acetamide]",115.483
14,"Cc1cc(C(=O)CCl)c(C)n1-c1ccccn1 [10-C16, 2-chloro-1-[2,5-dimethyl-1-(pyridin-2-yl)-1H-pyrrol-3-yl]ethan-1-one]",117.5
15,"CCc1ccccc1NC(=O)CNC(=O)CCl [4-I08, 2-chloro-N-{[(2-ethylphenyl)carbamoyl]methyl}acetamide]",100.619
16,"CCOc1cccc(N2CCN(C(=O)C(C)Cl)CC2)n1 (stereo not drawn) [7-G07, 2-chloro-1-[4-(6-ethoxypyridin-2-yl)piperazin-1-yl]propan-1-one]",80.0628
17,"CCCc1ccc(NC(=O)CCl)cc1 [6-I22, 2-chloro-N-(4-propylphenyl)acetamide]",77.1707
18,"C=CC(=O)NCC1CCN(c2ccccc2)C1 (stereo not drawn) [3-B17, N-[(1-phenylpyrrolidin-3-yl)methyl]prop-2-enamide]",146.626
19,"C=CC(=O)N1CCC(C(=O)NCc2ccc(C(N)=O)cc2)CC1 [3-J08, N-[(4-carbamoylphenyl)methyl]-1-(prop-2-enoyl)piperidine-4-carboxamide]",108.663
20,"N#CC(=Cc1ccccc1)C(=O)Nc1ccccc1-c1ccccc1 [8-A15, N-{[1,1'-biphenyl]-2-yl}-2-cyano-3-phenylprop-2-enamide]",109.876
21,"Cc1ccc(NC(=O)C(C#N)=Cc2cccc(F)c2)cc1 [8-F11, 2-cyano-3-(3-fluorophenyl)-N-(4-methylphenyl)prop-2-enamide]",89.2946
22,"Cc1cccc(CN(C(=O)CCl)C(C)C)c1 [6-J05, 2-chloro-N-[(3-methylphenyl)methyl]-N-(propan-2-yl)acetamide]",103.122
23,"CC(c1ccccc1F)N1CCCC(NC(=O)CCl)C1=O (stereo not drawn) [5-I10, 2-chloro-N-{1-[1-(2-fluorophenyl)ethyl]-2-oxopiperidin-3-yl}acetamide]",120.583

row,SMILES,% of control remaining [%]
1,"O=C(CCl)NS(=O)(=O)c1ccc(Cl)cc1 [4-E18, 2-chloro-N-(4-chlorobenzenesulfonyl)acetamide]",125.012
2,"Cc1ccc(N2CCN(C(=O)C(C)Cl)CC2=O)o1 (stereo not drawn) [7-A16, 4-(2-chloropropanoyl)-1-(5-methylfuran-2-yl)piperazin-2-one]",110.518
3,"C=CCNC(=O)C(C#N)=Cc1ccc2c(c1)OCCO2 [9-L06, 2-cyano-3-(2,3-dihydro-1,4-benzodioxin-6-yl)-N-(prop-2-en-1-yl)prop-2-enamide]",115.356
4,"COc1ccccc1NC(=O)C(C#N)=Cc1cc(C)c(C)cc1C [9-A10, 2-cyano-N-(2-methoxyphenyl)-3-(2,4,5-trimethylphenyl)prop-2-enamide]",92.2846
5,"Cc1ccc2nc(-c3ccc(F)cc3)c(CNC(=O)C(C)Cl)n2c1 (stereo not drawn) [5-D21, 2-chloro-N-{[2-(4-fluorophenyl)-6-methylimidazo[1,2-a]pyridin-3-yl]methyl}propanamide]",95.082
6,"CC(NC(=O)C(C#N)=Cc1ccc2c(c1)OCCO2)c1ccccc1 (stereo not drawn) [8-M15, 2-cyano-3-(2,3-dihydro-1,4-benzodioxin-6-yl)-N-(1-phenylethyl)prop-2-enamide]",91.6183
7,"Cc1ccc(S(=O)(=O)N2CCSSCC2)c(F)c1 [10-L09, 5-(2-fluoro-4-methylbenzenesulfonyl)-1,2,5-dithiazepane]",114.687
8,"O=C(CCl)NCCc1ccc(Cl)cc1 [4-O12, 2-chloro-N-[2-(4-chlorophenyl)ethyl]acetamide]",97.9514
9,"O=C(CCl)NCC(=O)Nc1ccc(F)c(F)c1 [4-L16, 2-chloro-N-{[(3,4-difluorophenyl)carbamoyl]methyl}acetamide]",109.004
10,"CC(Cl)C(=O)N(C)C(C)c1ccccc1N1CCCS1(=O)=O (stereo not drawn) [6-D05, 2-chloro-N-{1-[2-(1,1-dioxo-1lambda6,2-thiazolidin-2-yl)phenyl]ethyl}-N-methylpropanamide]",95.2683
11,"CC1CCCCC1NC(=O)C(C#N)=CC=Cc1ccccc1[N+](=O)[O-] (stereo not drawn) [8-F12, 2-cyano-N-(2-methylcyclohexyl)-5-(2-nitrophenyl)penta-2,4-dienamide]",110.207
12,"CC(=O)Nc1ccc(C(=O)CCl)cc1 [10-O12, N-[4-(2-chloroacetyl)phenyl]acetamide]",6.875
13,"CC(O)CN(Cc1ccc(Cl)c(F)c1)C(=O)CCl (stereo not drawn) [5-K12, 2-chloro-N-[(4-chloro-3-fluorophenyl)methyl]-N-(2-hydroxypropyl)acetamide]",102.732
14,"COc1ccc(NC(=O)C(C#N)=Cc2c(C)n[nH]c2C)cc1 [8-I04, 2-cyano-3-(3,5-dimethyl-1H-pyrazol-4-yl)-N-(4-methoxyphenyl)prop-2-enamide]",88.9627
15,"C=CC(=O)Nc1cnn(CCN2CCCC2=O)c1 [3-M18, N-{1-[2-(2-oxopyrrolidin-1-yl)ethyl]-1H-pyrazol-4-yl}prop-2-enamide]",98.9116
16,"COc1ccc(-c2nn(-c3ccccc3)cc2C=C(C#N)C(N)=O)cc1 [8-L16, 2-cyano-3-[3-(4-methoxyphenyl)-1-phenyl-1H-pyrazol-4-yl]prop-2-enamide]",92.6141
17,"COc1cc(C=C(C#N)C(=O)Nc2ccc(F)cc2)cc(Cl)c1O [8-H07, 3-(3-chloro-4-hydroxy-5-methoxyphenyl)-2-cyano-N-(4-fluorophenyl)prop-2-enamide]",81.9917
18,"C=CC(=O)NCc1ccccc1S(=O)(=O)N1CCCC1 [2-L17, N-{[2-(pyrrolidine-1-sulfonyl)phenyl]methyl}prop-2-enamide]",128.111
19,"N#CC(=Cc1cccc2ccccc12)C(=O)NCc1ccco1 [8-N15, 2-cyano-N-[(furan-2-yl)methyl]-3-(naphthalen-1-yl)prop-2-enamide]",108.88
20,"CCc1cccc2c(C(=O)CCl)c[nH]c12 [10-C12, 2-chloro-1-(7-ethyl-1H-indol-3-yl)ethan-1-one]",103.438
21,"Cc1cc(C)c(-c2csc(NC(=O)CCl)n2)cc1C [4-G17, 2-chloro-N-[4-(2,4,5-trimethylphenyl)-1,3-thiazol-2-yl]acetamide]",67.8418
22,"C=CC(=O)N1CCC(C(=O)Nc2ccc(N)c([N+](=O)[O-])c2)CC1 [3-E20, N-(4-amino-3-nitrophenyl)-1-(prop-2-enoyl)piperidine-4-carboxamide]",105.181
